# Over roughly 33,000 sequences, “E-score (-0.5 to 0.5)” has its median near -0.016; the highest 2% begin near 0.31. This is one part of the list.
# Molecular target: Cst6 (UniProt P40535)
# Assay: PBM E-score (8-mer binding enrichment) (E-score (-0.5 to 0.5)); higher = stronger / more preferred TF binding; most listed sequences are background and not binding sites
# Details: protein concentration: 200 nM; construct: GST-DNA-binding domain
# Outline: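 E-scores (a modified Wilcoxon-Mann-Whitney statistic) were assigned by the Universal PBM Analysis Suite to every ungapped eight-base word pooled with its reverse complement. The input came from universal all-10-mer Agilent arrays made double-stranded by primer extension and probed with GST-tagged yeast transcription factors at about 100-200 nM. Fluorescent anti-GST detected bound protein, and masliner normalised the scans.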
row,Sequence,PBM E-score
1,ATGCTTCC,0.021
2,ACACGGCA,0.282
3,CTCCGCTC,-0.0277
4,ACAGGCAG,-0.0376
5,ACACCTGA,0.213
6,GTTAGCGA,0.128
7,AAGGAATC,-0.128
8,AAAGCTTG,-0.0299
9,GGGTTCTA,-0.213
10,AAAAGCCC,-0.137
11,AGTGAGGA,-0.144
12,CTTCTATA,0.0494
13,CATACGAG,-0.0981
14,AATACCCT,-0.138
15,GCGCAGGA,-0.205
16,CCTTACCC,-0.0626
17,GCTTCCAA,-0.0131
18,ACGGATCA,0.135
19,CCGGTATA,-0.15
20,AAATTCTA,0.123
21,GCTTTGCC,-0.177
22,AGCGGCGA,0.0437
23,AGTCAATA,0.0835
24,TTAACTAA,0.277
25,AACCTGGG,-0.304

row,Sequence,PBM E-score
1,GCAAAGTA,0.102
2,TCCCCACA,-0.103
3,AAGGTTGT,0.022
4,CCCGCACA,-0.0728
5,AGTCCCTA,-0.248
6,GGGTCAAA,-0.0725
7,ATGCGCAG,-0.156
8,ATAGGATA,0.0454
9,GTTTCCAA,-0.138
10,CTAACAAC,0.109
11,ACGTATAG,0.189
12,AACTTACC,-0.0221
13,GACTAAAA,0.136
14,CACGGAGA,-0.116
15,AACATGTT,-0.102
16,CGGGCACA,-0.315
17,CTCCAGGA,-0.184
18,GCCGATAA,0.0648
19,CGACCGCC,-0.176
20,TAAAATCA,0.191
21,ACCTCAAT,0.163
22,TAATTGGA,0.0942
23,AAGTTTCG,-0.0165
24,AAGTGATA,0.0557
25,AGTACTTG,0.0955

row,Sequence,PBM E-score
1,CGAATATA,0.0991
2,CGATCAGA,0.101
3,CAAGCCTC,-0.211
4,TTCAGAAA,0.0738
5,AACAGGCC,-0.264
6,ATGTAATG,0.394
7,CCAAACCC,-0.126
8,CGGGGCGC,-0.119
9,ACGGCGGG,0.108
10,GGAGCAAA,-0.114
11,CGGATAAA,0.228
12,CCCGACTA,-0.252
13,TATTGGAA,0.122
14,ACTTTACA,0.13
15,CAGCGCAC,-0.335
16,ATTGCCGG,-0.237
17,AGGCTCGG,-0.303
18,CGCTCTAC,-0.0707
19,AGAAACCG,-0.185
20,GTCTGATA,-0.0451
21,GCAGGGGC,-0.135
22,ATGCGGCA,0.312
23,GATCGCTA,-0.0484
24,GCACTGGA,-0.138
25,AAAGTAGA,0.0816

row,Sequence,PBM E-score
1,CTCGACGA,-0.0908
2,CCTGCTCG,-0.295
3,GCCAATCC,-0.0757
4,CTCAGGGA,-0.36
5,GCAATTTA,0.151
6,AGAGTGCC,-0.178
7,CGGCGGAG,-0.118
8,CTAAGGGC,-0.257
9,TATGATAA,0.251
10,AAACGCAT,-0.13
11,TCGGGAAA,0.00878
12,GTCTAATA,0.122
13,ATAATCAA,0.16
14,ATTTGACA,0.173
15,CCATCCGA,-0.11
16,AATTAAAC,0.205
17,CAAAGTAC,0.0645
18,CACGAATA,0.217
19,AGGCTTAG,-0.144
20,GCAAGGAA,-0.0833
21,ACCCGTAT,-0.0506
22,GCGTCTAC,0.00187
23,AGATTCTA,0.182
24,ATACTACG,0.0975
25,CAGCCATC,0.0162

row,Sequence,PBM E-score
1,AGCGGGCG,-0.179
2,CAGGTCGG,-0.227
3,ACCACTTA,0.0912
4,GCAGGAGA,-0.202
5,CTATCCGC,0.0254
6,GACCCAGC,-0.258
7,CTTATTGA,0.125
8,CGAACCCG,-0.251
9,CAATAGGA,-0.0291
10,ACAAACGC,0.137
11,ACGCCGAA,0.0504
12,CGAAACCA,0.206
13,ACCGATAT,-0.0303
14,CATCAATA,0.244
15,AACATTAC,0.187
16,AACAACAC,0.0919
17,AAGAGACT,-0.192
18,CCATTCGG,-0.0262
19,CTCGGTAA,-0.064
20,AGATATCT,-0.168
21,AGATGGGC,-0.168
22,TAGTAATA,0.236
23,ACTACCAT,0.0297
24,ACTAGGGA,-0.24
25,AAGCTTAT,0.115

row,Sequence,PBM E-score
1,CTGATGCA,0.0731
2,ATGAATCC,0.00709
3,GCATTCCA,-0.149
4,ATGGTGAA,0.142
5,AAAACTAA,0.297
6,CGCGAAAC,0.0509
7,CGTACGTA,0.306
8,AGCGCAGA,-0.176
9,GTTAAGTA,0.178
10,CTCATATA,-0.0189
11,CGCATCCC,-0.216
12,AATATCGA,0.0833
13,CACGGGAG,-0.0594
14,CAGCCGAA,0.0351
15,ACGGGCCT,-0.224
16,CGCCGGTA,-0.145
17,AAACTATT,0.133
18,GATCCGGC,-0.118
19,ATGATAAG,0.171
20,AATAAGGT,0.00713
21,ACAAGCGT,0.0465
22,ATCTAGGA,-0.0727
23,ACCAATTC,-0.0455
24,CGGCTCCA,0.065
25,ATTCCGCC,0.0494

row,Sequence,PBM E-score
1,CAAACAGA,0.0458
2,CCAGTGCG,-0.281
3,CATGTTGC,0.0284
4,ATCTTTAG,0.131
5,CCACTCGG,-0.322
6,TATACGCA,0.177
7,AGTCGCGC,-0.16
8,CCGATGAC,0.336
9,CGTCCTGC,-0.297
10,CGATGACC,0.0541
11,ACAGCGAT,-0.152
12,AGGTCAAT,0.0479
13,GTGCATCA,0.0738
14,AGAGCGTC,-0.0841
15,GGCAGCTA,0.0631
16,AAAGGCGA,0.0536
17,GGCGCTAC,0.0745
18,ACACGGTG,-0.0946
19,CGGATCGA,-0.145
20,CCAACCCA,-0.222
21,ATTCAGGC,-0.0817
22,CCACGGTC,-0.371
23,ACGACCAT,-0.165
24,ATTCCTAG,-0.0362
25,ACGGCTTG,0.108

row,Sequence,PBM E-score
1,CGGTGTGC,-0.192
2,ACTGTACA,0.0222
3,TAAAAAAA,0.211
4,GGTTGAGA,-0.136
5,TATCTGGA,-0.184
6,ACTTCTAC,-0.00244
7,CGCCGACA,-0.0834
8,CACGCCGC,0.0528
9,AGCGTGTC,-0.153
10,AAGGCAGG,-0.132
11,AACGTGAG,-0.145
12,CAGCCAAC,-0.13
13,CTATATAA,0.147
14,AATATTCT,0.156
15,CAGAACTG,0.0427
16,AGCGGTAT,0.0321
17,CGGACCCA,-0.175
18,ATTATAGG,0.0701
19,AAACCAAC,-0.0742
20,CAAGTGCA,-0.189
21,AATTACAC,0.116
22,ATCGTATA,0.104
23,GCAATTAC,0.256
24,TAATCAAA,0.228
25,AAACCTAT,0.109

row,Sequence,PBM E-score
1,CAATAAGG,-0.0752
2,ACTGACCA,-0.219
3,ATGGCGGC,-0.124
4,CCTCTACG,-0.196
5,GCAGATCA,-0.231
6,ACCAGGAT,-0.0743
7,CCTCCGGC,-0.245
8,CTATATGA,0.181
9,TCCTGACA,0.111
10,ACACCAAT,0.0554
11,TCGCTGAA,0.0249
12,ATAAGTGG,0.187
13,AACGTGCG,-0.0179
14,CTACTTCA,-0.103
15,CGCACCAC,-0.0217
16,CGAATTAG,0.0675
17,GCGGACTA,-0.104
18,CACCTTCG,-0.112
19,GGGTATAC,-0.0951

# From the supplement of paper PMC3334620
